The other results are listed elsewhere or left out. Many values rest on one well or one pass, so single values are uncertain.
Key:
Assay in all cases: cell count relative to DMSO control; melanoma cells; higher = more viable cells
Conditions in all cases: library dose: standard library concentration; 72 h
A101D = system: A101D
A2058 = system: A2058
A375 = system: A375
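Note: cells treated in 1,536-well plates, then fixed and DAPI-stained, with nuclei counted from automated high-throughput microscope images.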

SMILES | cell count (A101D) [%] | cell count (A2058) [%] | cell count (A375) [%]
COc1ccc(C2=N[C@@H](c3ccc(Cl)cc3)[C@@H](c3ccc(Cl)cc3)N2C(=O)N2CCNC(=O)C2)c(OC(C)C)c1 [Nutlin-3] + Cn1c(Nc2ccc(C(F)(F)F)cc2)nc2cc(Oc3ccnc(-c4ncc(C(F)(F)F)[nH]4)c3)ccc21 [CHIR265] (first compound 0.5 µM, partner dose 0.4 µM) | 51.5 | 65.6 | 83.1
Cc1cn(-c2cc(NC(=O)c3ccc(C)c(Nc4nccc(-c5cccnc5)n4)c3)cc(C(F)(F)F)c2)cn1 [nilotinib] + CCCCCCCCc1ccc(CCC(N)(CO)CO)cc1 [fingolimod] (first compound 1 µM, partner dose 10 µM) | 6.52 | 9.67 | 37.3
Cc1cc(Nc2cc(N3CCN(C)CC3)nc(/C=C/c3ccccc3)n2)n[nH]1 + NCC(=O)Nc1ccc(-n2nc(C(F)(F)F)cc2-c2ccc3c(ccc4ccccc43)c2)cc1 [OSU03012] (first compound 0.2 µM, partner dose 5 µM) | 54.4 | 105 | 46.5
Cn1c(=O)n(-c2ccc(C(C)(C)C#N)cc2)c2c3cc(-c4cnc5ccccc5c4)ccc3ncc21 + CCCS(=O)(=O)Nc1ccc(F)c(C(=O)c2c[nH]c3ncc(Cl)cc23)c1F [PLX4720] (first compound 0.02 µM, partner dose 0.4 µM) | 71.1 | 72.2 | 105
Cc1cn(-c2cc(NC(=O)c3ccc(C)c(Nc4nccc(-c5cccnc5)n4)c3)cc(C(F)(F)F)c2)cn1 [nilotinib] + Cc1ccc(NC(=O)c2cccc(N(C)C)c2)cc1NC(=O)c1ccc(O)cc1 [ZM336372] (first compound 1 µM, partner dose 10 µM) | 90.1 | 137 | 118
Cc1cn(-c2cc(NC(=O)c3ccc(C)c(Nc4nccc(-c5cccnc5)n4)c3)cc(C(F)(F)F)c2)cn1 [nilotinib] + O=C(CCCCCCC(=O)Nc1ccccc1)NO [vorinostat] (first compound 1 µM, partner dose 0.4 µM) | 107 | 97.2 | 150
COc1ccc(C2=N[C@@H](c3ccc(Cl)cc3)[C@@H](c3ccc(Cl)cc3)N2C(=O)N2CCNC(=O)C2)c(OC(C)C)c1 [Nutlin-3] + NC(=O)Nc1cc(-c2cccc(F)c2)sc1C(=O)N[C@H]1CCCNC1 [AZD7762] (first compound 0.5 µM, partner dose 0.1 µM) | 50.4 | 65.5 | 42
Cc1cn(-c2cc(NC(=O)c3ccc(C)c(Nc4nccc(-c5cccnc5)n4)c3)cc(C(F)(F)F)c2)cn1 [nilotinib] + Cc1nc(Nc2ncc(C(=O)Nc3c(C)cccc3Cl)s2)cc(N2CCN(CCO)CC2)n1 [dasatanib] (first compound 1 µM, partner dose 0.02 µM) | 91.2 | 84.5 | 66.5
CC(C)C[C@H](NC(=O)[C@H](Cc1ccccc1)NC(=O)c1cnccn1)B(O)O [Bortezomib] + NCC(=O)Nc1ccc(-n2nc(C(F)(F)F)cc2-c2ccc3c(ccc4ccccc43)c2)cc1 [OSU03012] (first compound 0.005 µM, partner dose 5 µM) | 9.93 | 9.9 | 35.8
COc1ccc(C2=N[C@@H](c3ccc(Cl)cc3)[C@@H](c3ccc(Cl)cc3)N2C(=O)N2CCNC(=O)C2)c(OC(C)C)c1 [Nutlin-3] + C[C@]1(c2nc3c(C(N)=O)cccc3[nH]2)CCCN1 [Veliparib] (first compound 0.5 µM, partner dose 7 µM) | 61.8 | 73.5 | 77.3
COc1ccc(C2=N[C@@H](c3ccc(Cl)cc3)[C@@H](c3ccc(Cl)cc3)N2C(=O)N2CCNC(=O)C2)c(OC(C)C)c1 [Nutlin-3] + COc1cc(Nc2ncc(F)c(Nc3ccc4c(n3)NC(=O)C(C)(C)O4)n2)cc(OC)c1OC [Tamatinib] (first compound 0.5 µM, partner dose 2 µM) | 31.4 | 67 | 81.3
Cc1cc(Nc2cc(N3CCN(C)CC3)nc(/C=C/c3ccccc3)n2)n[nH]1 + C=C(c1ccc(C(=O)O)cc1)c1cc2c(cc1C)C(C)(C)CCC2(C)C [Bexarotene] (first compound 0.2 µM, partner dose 10 µM) | 106 | 120 | 93.4

From the supplement of paper PMC4604168 (melanoma cell lines)
